Hit rate of the full screen: of about 390,000 compounds, about 910 (0.23%) were called active. About 5% were inconclusive and are not listed. Calls follow the shape of the dose curve; as a rule, active = well fitted inhibition curve with a large enough effect; inconclusive = small, poorly fitted or top-dose-only effect; inactive = no such curve, though single readings can be large or run the other way. This is a selection; strong and weak results do not stand in their true shares.
Target: Ubiquitin carboxyl-terminal hydrolase 1 (Homo sapiens) (UniProt O94782)
UniProt O94782, sequence (O94782 whole entry, looked up): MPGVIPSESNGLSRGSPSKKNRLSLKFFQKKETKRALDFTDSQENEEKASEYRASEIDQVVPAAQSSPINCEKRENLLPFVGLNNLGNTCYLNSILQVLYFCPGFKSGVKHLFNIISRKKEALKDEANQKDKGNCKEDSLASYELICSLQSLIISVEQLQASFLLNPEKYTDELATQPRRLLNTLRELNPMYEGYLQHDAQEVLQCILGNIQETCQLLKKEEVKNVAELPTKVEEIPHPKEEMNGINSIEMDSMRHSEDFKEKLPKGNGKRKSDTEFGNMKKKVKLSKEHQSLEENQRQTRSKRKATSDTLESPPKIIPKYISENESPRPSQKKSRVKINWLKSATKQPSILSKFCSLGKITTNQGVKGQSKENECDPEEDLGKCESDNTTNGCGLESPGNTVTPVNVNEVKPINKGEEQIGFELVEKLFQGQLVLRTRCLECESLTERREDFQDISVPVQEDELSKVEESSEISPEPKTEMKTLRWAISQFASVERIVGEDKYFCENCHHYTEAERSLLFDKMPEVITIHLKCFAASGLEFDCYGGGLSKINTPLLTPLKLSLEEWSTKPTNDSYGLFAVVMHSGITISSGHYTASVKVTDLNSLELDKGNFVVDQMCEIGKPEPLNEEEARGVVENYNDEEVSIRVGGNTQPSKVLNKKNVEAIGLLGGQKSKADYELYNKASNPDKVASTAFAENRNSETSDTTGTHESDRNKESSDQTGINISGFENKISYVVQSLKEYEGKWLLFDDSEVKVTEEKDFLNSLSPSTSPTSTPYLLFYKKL
Assay: Inhibitors of USP1/UAF1: Primary Screen; also: nearly all actives have a fitted effect of over 60% in size
Details: recombinant USP1/UAF1, Ub-Rhodamine cleavage fluorescence; activity change, negative = inhibition: at 57.1 µM (top of the series)
Source text: Deubiquitinating enzymes (DUBs) are a class of enzymes that can cleave isopeptide bond formed between the C-terminal carboxylate of ubiquitin and a lysine side-chain amino group on the target protein. Among them, ubiquitin specific proteases (USPs) constitute the largest DUB family. Human USPs are emerging as promising targets for pharmacological intervention because of their connection to a number of human diseases, including prostate, colon and breast cancer (1, 2), pediatric acute lymphoblastic leukemia (3), and familial cylindromatosis (4). The advantage of inhibiting USPs lies in the potential specificity of therapeutic intervention that can lead to better efficacy and reduce nonspecific side effects. In a collaboration between the University of Delaware and the NIH Chemical Genomics Center, a high-throughput screen assay was developed to screen for USP1/UAF1 inhibitors. This miniaturized assay has a fluorescent read-out and is used to screen the NIH Molecular Libraries Small Molecule Repository (MLSMR) in order to identify a small molecule that inhibits USP1. NIH Chemical Genomics Center [NCGC] NIH Molecular Libraries Probe Centers Network [MLPCN] MLPCN Grant: DA030552 Assay Submitter (PI): Zhihao Zhuang, University of Delaware 1. Priolo, C., et al. (2006) The isopeptidase USP2a protects human prostate cancer from apoptosis. Cancer Res 66, 8625-8632 2. Popov, N., et al. (2007) The ubiquitin-specific protease USP28 is required for MYC stability. Nat Cell Biol 9, 765-774 3. De Pitta, C., et al. (2005) A leukemia-enriched cDNA microarray platform identifies new transcripts with relevance to the biology of pediatric acute lymphoblastic leukemia. Haematologica 90, 890-898 4. Kovalenko, A., et al. (2003) The tumour suppressor CYLD negatively regulates NF-kappaB signalling by deubiquitination. Nature 424, 801-805
3 microliters of reagents (buffer in columns 3 and 4 as negative control and 1nM USP1/UAF1 complex in columns 1, 2, and 5-48) are dispensed into Greiner black solid bottom 1536-well assay plates. Compounds are then transferred via Kalypsys pin tool equipped with 1536-pin array (10nl slotted pins, V&P Scientific, San Diego, CA). Following an incubation step of 15 min at room temperature, 1ul of Ub-Rho substrate (150nM final concentration) is added to initiate the reaction. The plates are immediately centrifuged at 1000 rpm for 15 seconds, and subsequently transferred to a ViewLux high-throughput CCD imager (PerkinElmer) wherein kinetic measurements of fluorescence are acquired using 480 nm excitation/540 nm emission filter set (6 reads every 60 seconds, see Table 1). All reagents are diluted in an assay buffer consisting of 50mM HEPES (pH 7.8), 0.5mM EDTA, 0.1 mg/ml BSA, 1mM TCEP, and 0.01% Tween-20.
% is scaled to controls: 0 for no effect and ±100 for the full control effect; potency is read from the fitted curve at half-maximal effect.

Compound | activity change, negative = inhibition | Potency
COc1ccc(S(=O)(=O)N(C)C[C@H]2OCc3cnnn3CCCC(=O)N([C@@H](C)CO)C[C@H]2C)cc1 | inactive: -13.9% | 
OCC[C@@H]1C[C@H](O)[C@@H](O)[C@@]2(OCc3ccccc32)O1 | inactive: -25.4% | 
O=C1NC[C@H](c2ccccc2)OC(=O)[C@H](Cc2ccc(F)cc2)C/C=C\C[C@@H]1CC(=O)N(CCO)Cc1ccccc1 | inactive: -21% | 
COC(=O)c1ccc2nc(C3CCCCC3)c3c(c2c1)CCC3 | inactive: -6.54% | 
COC(=O)C[C@H]1C[C@@H]2c3cc(NS(=O)(=O)c4cccc(OC)c4)ccc3O[C@@H]2[C@@H](CO)O1 | inactive: -14.6% | 
COc1ccc(-c2nc3ccccc3s2)cc1NC(C)=O | inactive: -23.4% | 
CCC1CN(C(=O)NCc2ccc(F)cc2)c2ccccc2O1 (stereo unspecified) | inactive: -19.9% | 
COC(C[C@H]1O[C@H]1[C@@H](O)[C@@H](C)OCc1ccccc1)OC | inactive: -17.4% | 
COC(=O)CN1C(=O)S/C(=C/c2ccc(N3CCCCC3)o2)C1=O |  | active: 28.2 µM
C[C@H]1CN([C@@H](C)CO)C(=O)CCCn2nncc2CO[C@H]1CN(C)C(=O)NC1CCCCC1 | inactive: -23.4% | 
O=C1CC(N2CCC(Cc3ccccc3)CC2)C(=O)N1CCc1ccccc1 (stereo unspecified) | inactive: 23.5% | 
COc1ccc(C)cc1NC(=O)CN1C(=O)CSc2ccc(S(=O)(=O)N3CCCC3)cc21 | inactive: -24.3% | 
O=C1c2c(O)ccc(O)c2C(=O)c2c(NCCNCCO)ccc(NCCNCCO)c21 | inactive: -3.04% | 
OCC[C@H]1C[C@H](O)[C@@H](O)[C@]2(CCCCO2)O1 | inactive: -9.97% | 
CC(C)(C)OC(=O)C[C@@H]1C/C=C\C[C@@H](CC(=O)N[C@@H](CO)Cc2ccccc2)C(=O)N2CCC[C@@H]2COC1=O | inactive: -18.1% | 
Cc1cc(C)cc(NC(=O)CCCN2C(=O)COc3ccc(C)cc32)c1 | inactive: 55.1% | 
Cc1ccc(O)c(C(=O)c2cc(C#N)c(=O)n(-c3nccs3)c2)c1 |  | active: 17.8 µM
COC(=O)[C@@H]1C[C@@H]2CC[C@@H](O)C[C@@H]2N1Cc1ccccc1OS(=O)(=O)c1ccc(C)cc1 | inactive: -25.2% | 
COc1ccc(NC(=O)C(C)NS(=O)(=O)c2ccc(NC(C)=O)cc2)cc1Cl (stereo unspecified) | inactive: 7.97% | 

Compound | activity change, negative = inhibition | Potency
CCOC(=O)[C@@H]1[C@H]2COc3ccc(Br)cc3[C@H]2N2C(=O)N(c3cccc(F)c3)C(=O)[C@]12C | inactive: -30.5% | 
O=C1NC[C@H](c2ccccc2)OC(=O)[C@H](Cc2ccc(F)cc2)CC/C=C/C[C@H]1CC(=O)N(CCO)Cc1ccccc1 | inactive: -3.05% | 
C[C@H](CO)N1C[C@H](C)[C@@H](CN(C)Cc2ccc(C(=O)O)cc2)Oc2c(NC(=O)c3ccncc3)cccc2C1=O | inactive: -7.83% | 
C[C@@H]1CN([C@H](C)CO)C(=O)CCCn2nncc2CO[C@H]1CN(C)C(=O)Nc1cccc2ccccc12 | inactive: -25.8% | 
O=C(C[C@@H]1C/C=C\C[C@H](NC(=O)OCC2c3ccccc3-c3ccccc32)C(=O)OC[C@@H]2CCCN2C1=O)NCCO | inactive: -0.0737% | 
N=c1nc(N2CCCCC2)cc(N)n1O | inactive: -4.8% | 
CCOC(=O)C1CCN(S(=O)(=O)c2cc(C(=O)OC)n(C)c2)CC1 | inactive: 46.9% | 
CC1CCc2c(sc3nc(-c4cc5ccccc5oc4=O)nc(Cl)c23)C1 (stereo unspecified) | inactive: 43.9% | 
COC(=O)N(C)C[C@@H]1OCc2cnnn2CCCC(=O)N([C@@H](C)CO)C[C@H]1C | inactive: -10.6% | 
COc1ccc(-c2nnc(SCC(=O)N3CCCCC3)o2)cc1 | inactive: -25.6% | 
Cc1ccc(Nc2ccc([N+](=O)[O-])ccc2=O)cc1 | inactive: 40.6% | 
C[C@@H]1CN([C@@H](C)CO)C(=O)CCCn2nncc2CO[C@H]1CN(C)C(=O)c1ccc(N2CCN(C)CC2)cc1 | inactive: -20.3% | 
CCOC(=O)[C@@H]1[C@H]2COc3ccc(Br)cc3[C@@H]2N2C(=O)N(c3ccc(C)cc3)C(=O)[C@@]12C | inactive: -11.6% | 
COC(=O)[C@@]12CCCN1[C@H](c1ccc(-c3ccccc3)cc1)[C@H]1C(=O)N(C)C(=O)[C@H]12 | inactive: -11.4% | 
Nc1ccc(N(CCO)CCO)cc1 |  | active: 8.91 µM
COc1ccc(C)cc1NC(=O)CN1CCCN(S(=O)(=O)c2ccc(Br)cc2)CC1 | inactive: -10.7% | 
CCCCCCN1C[C@H](O)[C@@H](n2cc(-c3ccc(F)cc3)nn2)C[C@@H]1c1ccc(C)cc1 | inactive: -19.8% | 
CCc1cccc(CC)c1N(COC)C(=O)Cn1c(C)nc2ccccc21 | inactive: 37.8% | 
O=C(c1cccs1)N1C[C@@H](O)[C@H](n2cc(-c3ccc(F)cc3)nn2)C[C@@H]1c1ccccc1 | inactive: -6.27% | 

Compound | activity change, negative = inhibition | Potency
NCCCS(=O)(=O)O | inactive: -13.8% | 
O=C(N1CCCC1)C12CC3CC(CC(C3)C1)C2 | inactive: 28.5% | 
COc1ccc(Oc2nc3c(C)cccn3c(=O)c2/C=C(\C#N)c2nc3ccccc3[nH]2)cc1 | inactive: 60.4% | 
CCCNC(=O)Cn1c(=O)/c(=C/c2ccc(-c3cccc([N+](=O)[O-])c3)o2)s/c1=C\C(=O)C(C)(C)C | inactive: 19.5% | 
CCOc1ccc(OCC)c(NC(=O)C2CCN(c3cnccn3)CC2)c1 | inactive: -25.6% | 
COc1cc2c(=O)n(CCC(=O)NCC3CCCO3)c(=O)n(CC(=O)Nc3ccc(C)cc3)c2cc1OC (stereo unspecified) | inactive: -1.42% | 
COC(=O)[C@H]1[C@H]2C[C@H]3c4[nH]c5ccccc5c4CCN3C[C@H]2CC[C@@H]1O | inactive: -30.4% | 
C[C@@H]1CN([C@H](C)CO)C(=O)CCCn2cc(nn2)CO[C@H]1CN(C)S(=O)(=O)c1ccc(-n2cccn2)cc1 | inactive: -3.9% | 
CC(=O)N1CCn2c3c(c(=O)c4cc(C)ccc42)CCC31 (stereo unspecified) |  | active: 31.6 µM
N#CC1=C2SCN(Cc3ccccc3)CN2C(=O)CC1c1cccs1 (stereo unspecified) |  | active: 15.8 µM
CCOc1ccccc1/C=C/c1onc(C)c1S(=O)(=O)N1CCC(C(=O)N(CC)CC)CC1 | inactive: -25.2% | 
CC[C@@H]1C/C=C\Cc2ccccc2[C@H](C(=O)C[C@H](O)CC(C)=O)OC1=O | inactive: -20.6% | 
O=C(CN1C(=O)COc2ccc(S(=O)(=O)N3CCCCCC3)cc21)NCc1ccc(F)cc1 | inactive: -18.3% | 
C=C1[C@H](C)CN(S(=O)(=O)C(C)(C)C)[C@H]1CCO | inactive: -3.85% | 
Cn1c(=O)oc2cc(S(=O)(=O)Nc3ccc(C(=O)O)cc3)ccc21 | inactive: -12.5% | 
C[C@@H](NC(=O)c1nc[nH]c1C(=O)NCCCCCNC(=O)OC(C)(C)C)c1ccccc1 | inactive: -25.7% | 
Cn1nc(-c2ccc(C(=O)Nc3ccc(F)cc3)cc2)c2ccccc2c1=O | inactive: -25.7% | 
Oc1ccc(C[C@H]2CNC(=S)N2CCc2cc(C(F)(F)F)cc(C(F)(F)F)c2)cc1 | inactive: -12.1% | 
